This is an account of results in ChEMBL document CHEMBL4888484, “Replenishing the malaria drug discovery pipeline: Screening and hit evaluation of the MMV Hit Generation Library 1 (HGL1) against asexual blood stage Plasmodium falciparum ,using a nano luciferase reporter read-out” (2022).

The campaign covered roughly 150,000 compounds. About 540 (0.36%) showed an effect of 50% or more. This is one part of the list.

In this assay the test system is Plasmodium falciparum. The assay is described as follows: Primary screen in NF54 nanoGlo assay, in single point, at 2uM, 72h; a lower Z score goes with more inhibition. Conditions: timepoint 72 hour. The class given is functional, Erythrocyte.
Turning to `COc1ccc(S(=O)(=O)N2CCOCC2)cc1NC(=O)CN1CCC[C@H]1c1cccs1`, the % Inhibition (commonly the change of the read-out against control, counted positive when it falls) is recorded as -11% and the Z score was 1.78.
Taken in the same sequence, the figures for `O=C(Nc1ccc2c(c1)N(C(=O)c1ccccc1)CCC2)c1ccccc1` were -15% and 1.48.
On the same counts, the results for `NC(=O)c1ccccc1NC(=O)[C@@H]1COCC(=O)N1Cc1ccccc1` are -7% and 1.35.
On the same counts, the results for `CCc1[nH]nc(-c2cccc(F)c2)c1NC(=O)c1ccc2c(c1)OCO2` are -10% and 1.5.
For the compound `CCc1ccc(S(=O)(=O)N2CCn3c(nnc3[C@H]3CCN(C(C)C)C3)C2)cc1`, the “% Inhibition” value came out at 31% and the Z score is -0.95.
On the same counts, the results for `CN1C(=O)c2cccnc2O[C@H]2CN(C(=O)COc3ccccc3)C[C@H]21` are -3% and 0.45.
Taken in the same sequence, the figures for `CC1CC(C)CN(S(=O)(=O)NCC2CCCS2(=O)=O)C1` (centres undefined) were -7% and 0.88.
On the same counts, the results for `Cc1cc(S(N)(=O)=O)c(Cl)cc1N1CCOCC1` are 1% and -0.07.
In the case of `CC[C@H](C)[C@H](NC(=O)c1n[nH]c2c1CCC2)c1nc2ccccc2[nH]1`, the “% Inhibition” value is given as -8% and the Z score came out at 0.97.
Take `CC1(C)CCN(C(=O)Nc2ccc(CCS(C)(=O)=O)cc2)CC1`: the “% Inhibition” value came out at 28% and the Z score is recorded as -3.19.
On the same counts, the results for `Cc1cnc(C(=O)N2CCC(N3C[C@H](Oc4ccccc4)[C@@H]3c3ccncc3)CC2)cn1` are 2% and -0.24.
Take `CCn1cc(CN(C)Cc2cccc3cnccc23)cc1C#N`: the “% Inhibition” value was -10% and the Z score is 0.96.
On the same counts, the results for `CC(=O)Cn1nc(C)c(-c2cnc3ccccc3n2)c1C` are -4% and 0.82.
For `CCOC(=O)[C@@]1(NC(C)=O)Cc2ccccc2NC1=O`, the “% Inhibition” value turned out to be 0% and the Z score is recorded as 0.
On to `O=C(CCC1CCC(C2OCCO2)O1)N1CC2CCC1C(CO)C2` (centres undefined), for which the “% Inhibition” value is -4% and the Z score is 0.9.
On the same counts, the results for `CCOc1cc(C(F)(F)F)cc(NC(C)=O)n1` are -1% and 0.13.
Taken in the same sequence, the figures for `CC(C)(C)OC(=O)NCCN(CCO)C(=O)Cc1cc(Cl)ccc1Cl` were -1% and 0.09.
Taken in the same sequence, the figures for `COc1ccc([C@@H](C)CN(C)CCCO)cc1` were -14% and 1.69.
With `CC(CCNC(=O)N(C)C(C)C(C)S(C)(=O)=O)c1ccccc1` (centres undefined), the “% Inhibition” value is reported as -11% and the Z score was 1.09.
With `Cc1nnc(CN(C)Cc2ccc(Br)o2)o1`, the “% Inhibition” value is -9% and the Z score was found to be 0.88.
On the same counts, the results for `Cc1sc(-c2nc(-c3cccc(F)c3)no2)cc1S(=O)(=O)NCCN1CCc2ccccc2C1` are -10% and 1.16.
Taken in the same sequence, the figures for `O=C(NC(c1ccccc1)c1ccccc1)C1CCN(S(=O)(=O)Cc2ccc(Cl)cc2)CC1` were 4% and -0.8.
Taken in the same sequence, the figures for `Cc1cccc(CN2CC=C(C(=O)NCc3ccc(N4CCOCC4)cc3)CC2)c1` were -6% and 0.9.
With `O=C(CNC(=O)c1ccc(C(F)(F)F)cc1)Nc1cnc2c(c1)COCC2`, the “% Inhibition” value is listed as 34% and the Z score is on record as -4.64.
On the same counts, the results for `O=C(NCc1cn(CC(=O)N2CCOCC2)nn1)Nc1ccc(Cl)cc1` are 0% and 0.04.
On the same counts, the results for `CN(C)c1nc(N(C)C[C@H]2CCCN2C)nc2ccccc12` are -1% and 0.1.
On the same counts, the results for `c1nnc(CN2CCn3c(CC4CC4)nnc3C2)s1` are -11% and 1.26.
With `CCOC(=O)c1cnn2c(N)c(C(=O)Nc3cccc(C(F)(F)F)c3)nnc12`, the “% Inhibition” value is 7% and the Z score is on record as -1.06.
As for `CCCN(CC1CC1)C(=O)c1[nH]c2c(F)cccc2c1C`, the “% Inhibition” value is on record as -18% and the Z score is reported as 1.59.
With `O=C(CCc1ccncc1)N[C@H]1C[C@H](c2nnc(CO)n2C2CC2)C1`, the “% Inhibition” value came to 3% and the Z score is reported as -0.39.
On the same counts, the results for `COCC(=O)N1CCN(Cc2cc(C)cc(C)c2)C(=O)C1` are 8% and -1.03.
On the same counts, the results for `C[C@H](NC(=O)C(C)(C)C)C(=O)OCC(=O)Nc1cc(F)ccc1F` are -10% and 1.44.
Taken in the same sequence, the figures for `CCc1nc(NCCc2ccnn2C)ncc1C` were 1% and -0.15.
On to `O=C(Cc1csc2ccccc12)N1CCN(C(=O)NC2CCCC2)CC1`, for which the “% Inhibition” value is recorded as -7% and the Z score is 1.1.
Taken in the same sequence, the figures for `Nc1nc2[nH]c(-c3ccc(Br)cc3)nc2c(=O)[nH]1` were -4% and 0.51.
Taken in the same sequence, the figures for `CC(=O)c1nn(-c2cccc(C)c2)c(-c2ccco2)c1C#N` were 1% and -0.17.
For `FC(F)(F)Oc1ccccc1[C@]1(F)CCNC1`, the “% Inhibition” value is given as -2% and the Z score is reported as 0.24.
On the same counts, the results for `CN1CCC[C@H](CN(C)c2ccnc(N(C)C)n2)C1` are -4% and 0.52.
As to `COc1cc(OC)c(NC(=O)N2CCCCC[C@H]2c2ccc(C)cc2)cc1Cl`, the “% Inhibition” value is given as -1% and the Z score turned out to be 0.21.
Taken in the same sequence, the figures for `COc1ccc(CN(C(C)=O)C(C)C)cc1OS(=O)(=O)C(C)C` were -1% and 0.17.
On the same counts, the results for `CC[C@H](NS(=O)(=O)N1CCCC1)c1nccs1` are 3% and -0.49.
On the same counts, the results for `NC(=O)c1cn(C2CCN(C(=O)NCc3ccc(Cl)s3)CC2)nn1` are -12% and 1.19.
